Among all 390,000 compounds or so, about 4,700 (1.2%) were called active. The shares of active, inactive and inconclusive entries below differ from those in the screen. Calls come from the whole dose curve; as a rule, active = well fitted inhibition curve with a large enough effect; inconclusive = small, poorly fitted or top-dose-only effect, or another doubt; inactive = no such curve, though single readings can be large or run the other way. Potencies of inconclusive entries are doubtful fits and often do not repeat.
biological target: DNA polymerase eta (Homo sapiens) (UniProt Q9Y253); experiment: qHTS for Inhibitors of Polymerase Eta; conditions: recombinant Pol eta, fluorescent DNA replication assay; series mostly up to 114 µM
Sequence of UniProt Q9Y253 (Q9Y253 whole entry, looked up): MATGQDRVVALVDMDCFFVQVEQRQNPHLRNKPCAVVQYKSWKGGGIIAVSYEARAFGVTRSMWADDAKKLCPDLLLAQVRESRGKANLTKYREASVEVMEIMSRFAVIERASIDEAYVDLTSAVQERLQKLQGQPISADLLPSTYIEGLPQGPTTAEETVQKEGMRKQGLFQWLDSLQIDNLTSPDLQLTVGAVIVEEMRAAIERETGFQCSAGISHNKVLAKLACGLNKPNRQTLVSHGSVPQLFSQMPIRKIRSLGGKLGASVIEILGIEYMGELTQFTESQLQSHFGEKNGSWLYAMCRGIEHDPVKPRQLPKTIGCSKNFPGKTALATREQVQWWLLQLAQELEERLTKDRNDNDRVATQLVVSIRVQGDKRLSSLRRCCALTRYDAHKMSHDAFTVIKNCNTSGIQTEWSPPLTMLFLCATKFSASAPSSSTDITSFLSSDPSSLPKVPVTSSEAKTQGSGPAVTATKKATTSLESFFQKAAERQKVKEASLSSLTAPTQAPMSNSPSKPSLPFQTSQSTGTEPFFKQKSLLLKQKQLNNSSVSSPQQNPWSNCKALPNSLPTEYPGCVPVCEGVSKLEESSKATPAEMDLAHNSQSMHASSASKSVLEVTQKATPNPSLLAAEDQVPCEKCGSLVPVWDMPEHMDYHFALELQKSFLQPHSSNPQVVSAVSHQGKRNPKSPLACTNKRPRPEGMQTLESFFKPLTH
How it was run: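 Pol eta at 10 nM preincubated with compounds 15 min at room temperature; reaction started with fluorescent substrate (50 nM final) and read kinetically at 0 and 10 min.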
Potency is the fitted concentration of half-maximal effect; tags give direction and shape of the fitted curve.

| Structure (SMILES) | Potency |
| --- | --- |
| Cc1ccc(-c2noc(COC(=O)c3ccco3)n2)cc1 | inconclusive: 0.631 µM [inhibitor, full curve, poor fit] |
| NS(=O)(=O)c1cccc(NC(=O)CSc2nc3nc(-c4cccs4)cc(C(F)(F)F)c3c(=O)[nH]2)c1 | active: 39.8 µM |
| O=[N+]([O-])c1cc(Cl)cc(/C=N/NC(=S)Nc2ccc(S(=O)(=O)N3CCOCC3)cc2)c1O | active: 79.4 µM |
| Cc1cc(C)c2nc(C)cc(N/N=C/c3ccc(O)cc3)c2c1 | active: 31.6 µM |
| O=C(N=Nc1c(O)[nH]c2ccccc12)c1cc(NS(=O)(=O)c2cccs2)cc(NS(=O)(=O)c2cccs2)c1 | inconclusive: 39.8 µM [inhibitor, partial curve] |
| CC1=NOC(=O)/C1=C\c1ccc(-c2ccc(Br)cc2C(=O)O)o1 | active: 39.8 µM |
| O=C(NCCc1ccccc1)C1CCCN1S(=O)(=O)c1ccccc1 (centres undefined) | inactive |
| CC(NC(=O)CC(c1ccccc1)c1cc(Cl)ccc1O)c1ccccc1 (centres undefined) | inconclusive: 39.8 µM [inhibitor, partial curve, poor fit] |
| COc1cc(/C=N/N=C2/C(=O)Nc3ccccc32)ccc1O | inconclusive: 39.8 µM [inhibitor, partial curve, poor fit] |
| O=C(O)CCC(=O)N1N=C(c2ccco2)CC1c1cccs1 (centres undefined) | inactive |
| COc1ccc(C2=NN(c3nc4ccccc4s3)C(=O)/C2=C\N(C)C)cc1 | inactive |
| COc1ccc(-n2c(SCC(=O)NCc3ccco3)nc3sc4c(c3c2=O)CCN(C)C4)cc1 | inconclusive: 50.1 µM [inhibitor, partial curve] |
| C=CCOC(=O)c1cc(-c2ccc(/C=C3\C(=O)NC(=O)C(C#N)=C3C)o2)ccc1Cl | active: 3.55 µM |
| CCCCCn1c(=O)[nH]c2cc(C(=O)Nc3ccc(OC)cc3)ccc2c1=O | inactive |
| COc1ccc(-c2cc(-c3ccccc3)n[nH]2)c(O)c1 | inconclusive: 100 µM [inhibitor, partial curve, poor fit] |
| COC(=O)c1cc(NC(=O)c2ccccc2)c(=O)oc1C/C=N\OCc1ccc(Cl)cc1Cl | inconclusive: 12.6 µM [inhibitor, full curve, poor fit] |
| Nc1cccc2c1C(=O)N(C(=O)/C=C/c1cccc(F)c1)C2=O | inconclusive: 79.4 µM [inhibitor, partial curve] |
| COc1cc(/C=N/NC(=O)CC2(C)OCCCO2)ccc1OCc1ccc(Cl)cc1Cl | inconclusive: 100 µM [inhibitor, partial curve, poor fit] |
| CCCCc1ccc(N/C(N)=N/c2nc(C)cc(C)n2)cc1 | inactive |
| CC(=C/C(=O)O)/C=C/c1ccc(Cl)o1 | active: 1.12 µM |
| O=C(NN=C1CCCC1)c1cc(O)cc(O)c1 | active: 50.1 µM |
| O=C(Nc1sc2c(c1C(=O)O)CCC2)c1cccs1 | inconclusive: 31.6 µM [inhibitor, single point] |
| Cc1ccc(NC(=O)c2ccc(C(C)(C)C)cc2)cc1[N+](=O)[O-] | inconclusive: 35.5 µM [inhibitor, partial curve, poor fit] |

| Structure (SMILES) | Potency |
| --- | --- |
| CCc1ccc(OCc2nnc(-c3ccccc3Br)o2)cc1 | inactive |
| CCOC(=O)/C(=C\c1ccc(N2CCC(c3ccccc3)=N2)cc1)C(C)=O | inconclusive: 56.2 µM [inhibitor, partial curve, poor fit] |
| CCOc1ccc(-c2cn3c(n2)sc2cc(C(=O)NCCCN4CCCCC4)ccc23)cc1 | inconclusive: 56.2 µM [inhibitor, partial curve, poor fit] |
| CC(=O)NC1=CC(=C[N+](=O)[O-])C=C1O | inconclusive: 89.1 µM [inhibitor, partial curve, poor fit] |
| CCCCCCSc1ccc([C@@H]2[C@H]3C(=O)N(CC)C(=O)[C@H]3[C@]3(C(=O)OC)CCCCN23)cc1OC | inconclusive: 100 µM [inhibitor, partial curve, poor fit] |
| CCc1ccc2oc(C(=O)Nc3cccnc3)c(C)c2c1 | inactive |
| CC(Sc1ccsc1[N+](=O)[O-])C(=O)N1CCN(c2ccccn2)CC1 (centres undefined) | active: 35.5 µM |
| CCc1noc(C)c1C(=O)Nc1nc(-c2ccc(Cl)cc2Cl)cs1 | inconclusive: 7.94 µM [inhibitor, full curve, poor fit] |
| Cc1occc1C(=O)Nc1ccccc1NC(=O)c1ccoc1C | inconclusive: 89.1 µM [inhibitor, single point] |
| COc1ccc(N(CC(C)C)S(=O)(=O)c2nnc(NC(=O)c3ccco3)s2)cc1 | active: 79.4 µM |
| COc1ccccc1N=c1oc2cc(O)ccc2cc1C(=O)NCC1CCCO1 (centres undefined) | inactive |
| CCOC(=O)c1c(NC(=S)N2CCCCC2)sc2c1CCN(C(=O)OCC)C2 | inconclusive: 79.4 µM [inhibitor, partial curve, poor fit] |
| Cc1ccccc1S(=O)(=O)NC1OC(=O)C(Oc2ccccc2)=C1Br (centres undefined) | inconclusive: 79.4 µM [inhibitor, partial curve, poor fit] |
| Oc1c(Br)cc(Br)cc1C=Nc1cccc2ncccc12 | inconclusive: 31.6 µM [inhibitor, full curve] |
| COc1ccc(C2NC3=C(CCC3)C3(C#N)C(OC)(OC)N=C(N)C23C#N)cc1 (centres undefined) | inconclusive: 22.4 µM [inhibitor, partial curve] |
| O=C(COc1ccc(Cl)cc1Cl)NN=C1c2ccccc2-c2ccccc21 | inconclusive: 4.47 µM [inhibitor, full curve, poor fit] |
| CC(C)Cn1c(CN2CCN(c3cccc(Cl)c3)CC2)nc2c1c(=O)[nH]c(=O)n2C | inactive |
| COc1ccc(OC)c([C@@H]2Nc3ccc(C(=O)O)cc3[C@@H]3C=CC[C@@H]32)c1 | active: 35.5 µM |
| CCOc1cc(CNc2ccc(N3CCOCC3)cc2)cc(Br)c1OCC | inconclusive: 89.1 µM [inhibitor, partial curve, poor fit] |
| CC1OC2(C)OC(=N)C1(C#N)C(C#N)(C#N)C2c1ccccc1 (centres undefined) | inconclusive: 39.8 µM [inhibitor, single point] |
| COCCNC(=O)/C(C#N)=C/c1c(N2CCN(C)CC2)nc2ccccn2c1=O | inactive |
| COc1ccc(OC)c(C(=O)c2ccc([N+](=O)[O-])cc2)c1 | inactive |
| CCC(=O)OCC(=O)c1c(N)n(Cc2ccccc2)c(=O)n(C)c1=O | inconclusive: 11.2 µM [inhibitor, partial curve] |

| Structure (SMILES) | Potency |
| --- | --- |
| CSc1ccc(/C=C(\NC(=O)c2ccc(C)cc2)C(=O)Nc2cccc(C)c2)cc1 | inconclusive: 15.8 µM [inhibitor, partial curve, poor fit] |
| O=C1CN(C(=O)COC(=O)C2CC(=O)N(Cc3ccco3)C2)c2ccccc2N1 (centres undefined) | inconclusive: 22.4 µM [inhibitor, partial curve] |
| Cc1cc2c(cc1C)N(C(=O)CCl)CCN2C(=O)CCl | inconclusive: 15.8 µM [inhibitor, full curve] |
| O=C1CCCC(O)=C1Sc1ccccc1C(=O)O | active: 8.91 µM |
| CC(=O)c1ccc(NC(=O)c2nc(-c3ccccc3)n(-c3ccc(C)cc3)n2)cc1 | inactive |
| S=c1[nH]nc(-c2ccco2)n1/N=C/C=C/c1ccccc1 | inactive |
| C/C=C\C=C/C(=O)Nc1cccc(C2=NOC3(C2)C[C@H](C(N)=O)N(C(=O)c2ccc(OC)cc2)C3)c1 (some centres undefined) | active: 20 µM |
| Cc1ccc(-c2nnc3c4ccccc4c(-c4ccccc4)nn23)cc1 | inactive |
| Cc1ccc2nsnc2c1S(=O)(=O)Nc1cccc2nsnc12 | inconclusive: 20 µM [inhibitor, partial curve, poor fit] |
| O=C(O)c1cccc(-n2cccc2/C=C\[N+](=O)[O-])c1 | active: 20 µM |
| Cc1cccc(N2CN=c3s/c(=C\c4ccccn4)c(=O)n3C2)c1 | inactive |
| CN(C)/C=C(\C=O)c1c(Cl)cccc1Cl | inconclusive: 3.98 µM [inhibitor, partial curve, poor fit] |
| O=C(CSc1ccccc1Cl)c1ccco1 | inconclusive: 12.6 µM [inhibitor, partial curve, poor fit] |
| COc1cc(/C=C2\C(=N)N3N=C(S(C)(=O)=O)SC3=NC2=O)ccc1OC(=O)c1ccco1 | active: 22.4 µM |
| CCCCCCc1cc2cc(-c3nnc(-c4ccccc4O)o3)c(=O)oc2cc1O | active: 1.78 µM |
| CCC(=O)N1CCc2cc(Br)cc(S(=O)(=O)CCC(=O)NCc3ccco3)c21 | inconclusive: 4.47 µM [inhibitor, partial curve, poor fit] |
| CCC(C(=O)Nc1ccc(C(=O)OC)cc1)n1nc(-c2ccc(C)c(C)c2)ccc1=O (centres undefined) | inactive |
| CC1Cc2ccccc2N1C(=O)CSc1nnc(NC(=O)Cc2cccs2)s1 (centres undefined) | inconclusive: 100 µM [inhibitor, single point] |
| O=[N+]([O-])c1ccc2nc(SCc3cn4ccccc4n3)[nH]c2c1 | inconclusive: 20 µM [inhibitor, partial curve, poor fit] |
| COc1ccc(/C=C/C(=O)O)cc1S(=O)(=O)NC1CCS(=O)(=O)C1 (centres undefined) | active: 28.2 µM |
| O=C(O)c1cc(N=Nc2c(O)ccc3ccccc23)cc(C(=O)O)c1 | active: 17.8 µM |
| Cc1oc(C)c2c(=O)cc(-c3ccc4c(c3)OCO4)cc(OC(=O)c3cccc(Cl)c3)c12 | inconclusive: 89.1 µM [inhibitor, single point] |
| CCN(c1ccccc1)c1ncnc2c1cnn2-c1ccccc1 | inconclusive: 79.4 µM [inhibitor, partial curve, poor fit] |
